# Test results: PubChem BioAssay AID602179 (National Center for Advancing Translational Sciences (NCATS), 2012)
# In all, about 390,000 compounds went through this assay and about 360 (0.092%) were called active. Inconclusive results, whose numbers are uncertain, are shown with a selection of clear calls. The call rests on the fitted dose curve; in most records, active means well fitted inhibition curve with a large enough effect; inconclusive means small, poorly fitted or top-dose-only effect; inactive means no such curve, though single readings can be large or run the other way. A potency beside an inconclusive call is a rough fit, not a confirmed value.
# Target: Isocitrate dehydrogenase [NADP] cytoplasmic (Homo sapiens) (UniProt O75874)
# Experiment: qHTS for Inhibitors of mutant isocitrate dehydrogenase 1 (IDH1): qHTS; further: nearly all actives have a fitted effect of over 65% in size
# Settings: IDH1-R132H enzyme, NADPH consumption, diaphorase/resazurin fluorescence; series mostly up to 76.6 µM
# Outline: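 IDH1-R132H (0.5 ug/mL dispensed) in pH 7.5 Tris buffer was preincubated 30 min with compound, then given a substrate mix of 0.016 mM NADPH and 2 mM alpha-KG for 80 min at room temperature; remaining NADPH was read by diaphorase/resazurin fluorescence.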
# Potency means the concentration at half of the fitted maximal effect; tags describe the fitted curve by direction and shape.
row,Compound,Potency
1,CC(C)C[C@@H](CN1CCC[C@@H]1CN1C(=O)C(=O)NC[C@@H]1Cc1ccccc1)N1C[C@H](Cc2ccc(O)cc2)N(CC2CCCCCC2)C(=O)C1=O,active: 28.2 µM
2,Cc1cccn2c(=O)c3cc(S(=O)(=O)c4ccccc4)c(=N)n(Cc4cccnc4)c3nc12,"inconclusive: 29.3 µM [inhibitor, partial curve]"
3,COc1cc(C(=O)N2CCN(CCc3ccccn3)CC2)cc(OC)c1OC,"inconclusive: 25.1 µM [inhibitor, single point]"
4,CC(C)OC(=O)CSc1nc(N2CCOCC2)c2c(c1C#N)CC(C)(C)OC2,"inconclusive: 29.3 µM [inhibitor, full curve]"
5,CCc1cccc(CC)c1-n1c(SCC(=O)N2CCc3ccccc3C2)nnc1-c1cccnc1,active: 52.1 µM
6,CCOC(=O)c1cc(C)n(CC2CCC(C(=O)Nc3ccc(Cl)cc3)CC2)c1C (stereo not given),inactive
7,COC(=O)C1=CN(c2cccc(C)c2)C=C(C(=O)OC)C1c1cc(OC)c(O)c([N+](=O)[O-])c1,"inconclusive: 36.9 µM [inhibitor, partial curve]"
8,C/C(=C\c1ccco1)C1C(C#N)=C(N)Oc2n[nH]c(-c3ccccc3)c21 (stereo not given),"inconclusive: 23.3 µM [inhibitor, partial curve, poor fit]"
9,CC(=O)Nc1cccc(/C(C)=N/Nc2ccc(S(=O)(=O)Nc3ccccc3C(=O)O)cc2[N+](=O)[O-])c1,"inconclusive: 52.1 µM [inhibitor, partial curve, poor fit]"
10,COc1ccccc1N1CCN(Cc2c[nH]c3ccccc23)CC1,inactive
11,COc1ccc(-c2oc(NC(=O)CCl)c(C#N)c2-c2ccc(OC)cc2)cc1,active: 29.3 µM
12,C[C@@H]1CN([C@@H](C)CO)C(=O)c2cc(C#Cc3cccc(F)c3)cnc2O[C@H]1CN(C)C(=O)C1CCCCC1,inactive
13,CCOC(=O)COc1ccc(Br)cc1/C=C\c1[nH]c(=O)[nH]c(=O)c1[N+](=O)[O-],"inconclusive: 58.5 µM [inhibitor, single point]"
14,Clc1ccccc1C(c1ccccc1)(c1ccccc1)n1ccnc1,"inconclusive: 44.7 µM [inhibitor, partial curve, poor fit]"
15,NNC(=O)CN1C(c2ccccc2Br)=Nc2ccc(Br)cc2C1c1ccccc1 (stereo not given),"inconclusive: 52.1 µM [inhibitor, partial curve, poor fit]"
16,CCc1ccc(Sc2cc(C(=O)NC(C)CC)c3ccccc3n2)cc1 (stereo not given),"inconclusive: 22.4 µM [inhibitor, full curve]"
17,N#CC1=C(N)NC(SCC(=O)c2ccc(Cl)cc2)=C(C#N)C12CCCC2,"inconclusive: 36.9 µM [inhibitor, partial curve, poor fit]"
18,CCOC(=O)c1cc(-c2cccs2)nc2c1c(C)nn2-c1ccccn1,active: 14.7 µM
19,CCCCNC(=O)CSc1nc2c(sc(=S)n2-c2cc(Cl)ccc2OC)c(=O)[nH]1,"inconclusive: 52.1 µM [inhibitor, partial curve, poor fit]"
20,Cc1[nH][nH]c(=O)c1C(c1c(C)[nH][nH]c1=O)c1cn(C)c2ccccc12,inactive

row,Compound,Potency
1,COc1cc(-c2nc3ccc4ccccc4c3c3c2CCC3)cc(OC)c1O,"inconclusive: 52.1 µM [inhibitor, single point]"
2,CC1CCc2c(sc3nc(SCC(=O)O)n(-c4ccccc4)c(=O)c23)C1 (stereo not given),"inconclusive: 58.5 µM [inhibitor, single point]"
3,O=C(/C=C/c1ccc([N+](=O)[O-])cc1)Nc1ncc([N+](=O)[O-])s1,inactive
4,O=C(O)c1cccc(COc2ccc3c(c2)CCC3)c1,inactive
5,CCC(CO)Oc1cc(NCc2cc(C)cc(C)c2)c2ncn(C(C)C)c2c1 (stereo not given),"inconclusive: 63.1 µM [inhibitor, single point]"
6,CC(c1ccccc1)n1cc2c(c1-c1ccccc1Br)c(=O)n(C)c(=O)n2C (stereo not given),"inconclusive: 44.7 µM [inhibitor, partial curve, poor fit]"
7,Cc1ccc(C(NC(=O)C(C)C)c2cc([N+](=O)[O-])c3cccnc3c2O)cc1 (stereo not given),"inconclusive: 52.1 µM [inhibitor, partial curve]"
8,O=C(CC1C(=O)N(c2ccccc2)C(=O)N1CCc1cccs1)Nc1ccc(F)cc1 (stereo not given),"inconclusive: 50.1 µM [inhibitor, single point]"
9,O=C(O)c1ccc(-n2ncc(Cl)c(Cl)c2=O)cc1,inactive
10,Cc1ccc(Sc2ccc(S(=O)(=O)Nc3ccc(C(=O)O)cc3)cc2)cc1C,"inconclusive: 58.5 µM [inhibitor, single point]"
11,Cc1ccc(SCc2nc(-c3ccc(C(=O)NCC(C)c4ccccc4)cc3)oc2C)cc1 (stereo not given),inactive
12,Nc1c(C(=O)c2ccccc2)sc(Nc2ccc(Cl)c(Cl)c2)c1C(=O)Nc1ccccc1,"inconclusive: 50.1 µM [inhibitor, single point]"
13,CCCN1CCC(N(CCc2ccccc2)Cc2ccccc2)CC1,inactive
14,COc1ccc(/C=C2/SC(=O)N(CCCCCC(=O)Nc3ccccc3C(=O)O)C2=S)cc1,"inconclusive: 46.5 µM [inhibitor, partial curve]"
15,COc1cc2c(cc1OC)CN(c1nc(CN3CCOCC3)nc3sc4c(c13)CCC(C)C4)CC2 (stereo not given),"inconclusive: 58.5 µM [inhibitor, single point]"
16,NSc1nc(N)c2nc(-c3ccccc3)c(-c3ccccc3)nc2n1,"inconclusive: 31.6 µM [inhibitor, partial curve]"
17,CC1CN(CCOCCOc2ccccc2-c2ccccc2)CC(C)O1 (stereo not given),inactive
18,CCCOc1cccc(C2c3c(oc4cc(C)c(C)cc4c3=O)C(=O)N2CCCN2CCOCC2)c1 (stereo not given),"inconclusive: 50.1 µM [inhibitor, single point]"
19,Cc1ccc(-c2n[nH]c3c2C(c2cccs2)N(c2ccc(Cl)cc2)C3=O)cc1 (stereo not given),inactive
20,COc1ccc2c(c1)[C@H]1[C@H](CO2)[C@H](c2ccccc2)[C@]2(C)C(=O)Nc3ccccc3C(=O)N12,"inconclusive: 70.8 µM [inhibitor, single point]"
